# In all, about 310,000 compounds went through this assay and about 14,000 (4.5%) showed an effect of 50% or more. Effects have a minus sign here. This is one part of the list.
# Target: human ether-à-go-go-related gene (hERG) potassium channel (human, UniProt Q12809)
# Assay: primary screen, population patch clamp on CHO cells stably expressing hERG
# 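Note: peak tail current of the secondary pulse compared with the same well before compound.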
# Sequence of human ether-à-go-go-related gene (hERG) potassium channel (Q12809 whole entry, looked up): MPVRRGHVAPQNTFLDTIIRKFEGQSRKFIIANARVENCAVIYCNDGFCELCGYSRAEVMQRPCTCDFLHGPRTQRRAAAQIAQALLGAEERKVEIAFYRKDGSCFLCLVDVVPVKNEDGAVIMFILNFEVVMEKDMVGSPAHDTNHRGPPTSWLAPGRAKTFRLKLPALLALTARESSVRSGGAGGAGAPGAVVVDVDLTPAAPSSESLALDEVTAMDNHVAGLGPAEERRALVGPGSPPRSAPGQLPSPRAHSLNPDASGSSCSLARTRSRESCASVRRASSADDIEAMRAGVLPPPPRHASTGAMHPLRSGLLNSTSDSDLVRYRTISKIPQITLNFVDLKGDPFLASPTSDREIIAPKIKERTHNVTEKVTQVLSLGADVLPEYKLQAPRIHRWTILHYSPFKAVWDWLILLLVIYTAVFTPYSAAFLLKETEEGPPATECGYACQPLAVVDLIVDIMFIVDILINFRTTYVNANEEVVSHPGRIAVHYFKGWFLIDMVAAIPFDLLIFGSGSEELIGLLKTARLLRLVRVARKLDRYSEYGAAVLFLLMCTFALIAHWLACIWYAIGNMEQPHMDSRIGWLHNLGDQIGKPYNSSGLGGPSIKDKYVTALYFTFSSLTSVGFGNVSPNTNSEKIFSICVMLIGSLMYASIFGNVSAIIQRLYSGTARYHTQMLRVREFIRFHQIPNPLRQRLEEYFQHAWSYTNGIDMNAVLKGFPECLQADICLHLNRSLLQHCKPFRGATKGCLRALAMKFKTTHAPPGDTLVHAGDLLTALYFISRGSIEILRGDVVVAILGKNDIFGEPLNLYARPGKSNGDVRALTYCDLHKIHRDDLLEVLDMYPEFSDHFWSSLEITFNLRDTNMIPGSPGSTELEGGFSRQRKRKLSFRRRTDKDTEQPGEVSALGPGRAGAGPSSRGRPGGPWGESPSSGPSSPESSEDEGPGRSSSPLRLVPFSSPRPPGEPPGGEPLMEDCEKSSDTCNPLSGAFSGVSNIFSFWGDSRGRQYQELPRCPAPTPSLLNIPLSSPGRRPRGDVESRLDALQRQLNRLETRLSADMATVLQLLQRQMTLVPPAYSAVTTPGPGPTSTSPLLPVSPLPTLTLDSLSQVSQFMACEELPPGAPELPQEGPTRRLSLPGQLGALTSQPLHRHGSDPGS
row,Structure (SMILES),"hERG current change (%, negative = inhibition) at 10uM"
1,CCN(Cc1ccccc1)C(=O)c1cc2cc(OC)c(OC)cc2[nH]1,14%
2,O=C(O)CSc1c2c(nc3cc(C(=O)N4CCCC4)ccc13)CCCC2,16.8%
3,CC/C(=N\NC(=O)Nc1nonc1N)c1ccc(OC)c(OC)c1,4.9%
4,CC12CC3CC(C)(C1)CC(C(O)CN1CCOCC1)(C3)C2.Cl (stereo not shown),1.62%
5,CN(C)CCn1c(C(=O)O)cc2ccccc21.Cl,14.6%
6,COC(=O)c1ccccc1NC(=O)Cn1c(=O)n(Cc2ccccc2)c(=O)c2c(C)c(C)sc21,5.13%
7,Cc1ccc(C(=O)CN(CCCC(N)=O)S(=O)(=O)c2ccc([N+](=O)[O-])cc2)cc1,-66.7%
8,CCN(CC)S(=O)(=O)c1cc(NC(=O)COC(=O)c2sc3ccccc3c2Cl)ccc1C,17.8%
9,CC(NC(=O)/C=C/c1ccc(Br)cc1)c1ccc(Cl)cc1 (stereo not shown),8.23%
10,Cc1ccc(S(=O)(=O)CC(O)COc2ccc(F)cc2Cl)c(C)c1 (stereo not shown),6.28%
11,CCCCn1nnnc1SCC(=O)c1cc(Cl)ccc1OC,-28.7%
12,O=C(NC1CCCc2c1cnn2-c1ccc(F)cc1F)c1csnn1 (stereo not shown),16.9%
13,CN1/C(=C/C(=S)NC(=O)C2CCC2)C(C)(C)c2ccccc21,21.2%
14,Cc1ccc(Nc2nc(C(=O)NCCCN3CCOCC3)cs2)cc1,-45.9%
15,CCCN1C(=O)c2cc(C(=O)Nc3cccc(C(C)=O)c3)ccc2C1Nc1cccc(C(C)=O)c1 (stereo not shown),-5.36%
16,COc1ccc(-c2nc(-c3ccc4c(c3)OCO4)[nH]c2-c2ccc(OC)cc2)cc1,24.8%
17,Cn1cc(C(=O)c2ccc(Cl)cc2Cl)cc1C(=O)N/N=C(\N)COc1ccc(F)cc1,-30.3%
18,CCCCNc1ccc(S(N)(=O)=O)cc1[N+](=O)[O-],-0.608%
19,CCCCSc1nc2sc3c(c2c(=O)[nH]1)CC(C)(CC)OC3 (stereo not shown),28.8%
20,Cc1cccc(OCC(=O)O/N=C(\N)c2ccccn2)c1C,-5.6%
21,Cc1ccc(SCC(=O)Nc2ccc3c(c2)C(=O)NC3=O)cc1,5.88%
22,CC/C(=N\Nc1ccc([N+](=O)[O-])cc1[N+](=O)[O-])c1ccc(O)cc1,21.7%

row,Structure (SMILES),"hERG current change (%, negative = inhibition) at 10uM"
1,Cc1cccnc1NC(=O)c1ccc(C(=O)c2ccccc2)cc1,-5.53%
2,Cc1ccccc1-c1cc(C(=O)NCC2CC2)nn1CC1CC(c2cccc([N+](=O)[O-])c2)=NO1 (stereo not shown),-26.6%
3,Nn1cnnc1N/N=C/c1cc([N+](=O)[O-])c(Cl)cc1Cl,16.8%
4,COc1ccc(NC(=S)NC(NC(=O)c2ccccc2Cl)C(Cl)(Cl)Cl)c([N+](=O)[O-])c1 (stereo not shown),14.3%
5,CC(=O)c1c(C)[nH]c(C(=O)Nc2nc(-c3ccc(Cl)cc3)cs2)c1C,13.9%
6,c1ccc(CCNc2ncnc3sccc23)nc1,26.8%
7,O=C(O)c1ccc(/C=C/c2nc3ccccc3c(=O)[nH]2)cc1,17.5%
8,C=C(C)c1nc(N)nc(N)n1,8.71%
9,CCC(CC)C(=O)Nc1cccc(C(=O)Nc2ccc3c(c2)OCO3)c1,3.33%
10,COc1ccc(CCNC(=O)COC(=O)C2CC2C)cc1 (stereo not shown),1.67%
11,COc1ccc(NC(=O)c2ccc(C)cc2)cc1,12.6%
12,Cc1noc(C)c1CSCC(=O)Oc1ccc(N(C)S(=O)(=O)c2ccc(Cl)cc2)cc1,4.5%
13,CCN(CC(=O)Nc1cc(Cl)ccc1C)C(=O)C1COc2ccccc2O1 (stereo not shown),2.66%
14,CCN1CCCC1CNC(=O)C1c2ccccc2C(=O)N(CCOC)C1c1ccc(F)cc1 (stereo not shown),20.2%
15,CCN(CC(=O)Nc1ccc2c(c1)OCCO2)Cc1cc(=O)n2ccsc2n1,3.88%
16,O=C(Cn1nnc(-c2ccccc2Cl)n1)N1CCN(S(=O)(=O)c2ccc(Cl)cc2)CC1,-18%
17,COc1ccc(CNS(=O)(=O)c2ccc(-c3ccc(=O)[nH]n3)s2)cc1OC,-29.5%
18,CCOC(=O)N1CCN(S(=O)(=O)c2ccc(C(=O)Nc3ccc4c(c3)C(=O)NC4=O)cc2)CC1,-7.82%
19,CC1CCN(CCNC(=O)C2CCCN(S(=O)(=O)c3cccc4nsnc34)C2)CC1 (stereo not shown),-19.3%
20,CC(C)N(CCCNC(=O)c1ccc(CS(=O)(=O)c2c(Cl)cccc2Cl)o1)Cc1ccccc1,-67.7%
21,COc1cccc(CNC(=O)N[C@@H](C)C(=O)O)c1,5.75%
22,C=CCC1(Nc2ccccc2)CC(C)N(C)CC1C.O=C(O)C(=O)O (stereo not shown),-21.1%

row,Structure (SMILES),"hERG current change (%, negative = inhibition) at 10uM"
1,O=C(N/N=C/c1ccc(O)cc1)c1ccc(COc2cc(Cl)ccc2Cl)o1,7.07%
2,CCn1cc(C(=O)NCCCOC)c(=O)c2cc(S(=O)(=O)N3CCC(C)CC3)ccc21,-10.3%
3,CCOc1ccc(N(CC(=O)N/N=C(\C)c2cccc(NC(C)=O)c2)S(=O)(=O)c2ccccc2)cc1,19.5%
4,CCC(C)(CC(=O)O)CC(=O)Nc1cc(C(F)(F)F)cc(C(F)(F)F)c1 (stereo not shown),9.28%
5,COc1ccc(CCNC(=O)CC(C)(C)CC2=NS(=O)(=O)c3ccccc3N2)cc1OC,8.15%
6,COC(=O)C[C@H]1c2cc(C(F)(F)F)ccc2S(=O)(=O)N1Cc1ccccc1OC,-12.9%
7,CC(C)C(OC(=O)CCCC(=O)Nc1nccs1)C(=O)NC1CCCCC1 (stereo not shown),4.8%
8,COc1ccccc1NC(=O)CCC(=O)Nc1ccccc1OC,-5.93%
9,COC(=O)c1cccn(CC(=O)c2ccc(Cl)cc2Cl)c1=O,-2.24%
10,O=C(O)CN1C(=O)/C(=C\c2ccccc2OCc2ccc(F)cc2)SC1=S,-13.3%
11,NC(=O)COC(=O)[C@H](Cc1c[nH]c2ccccc12)NC(=O)c1ccc(F)cc1,7.06%
12,COc1ccccc1NC(=O)Nc1nc(CC(=O)NCc2ccccn2)cs1,-11%
13,COc1ccc(NC(=O)CN(C)C(=O)c2oc3c(ccc4ccccc43)c2C)cc1,-10.8%
14,CC1(C)CC(NC(=S)Nc2ccc([N+](=O)[O-])cc2)CC(C)(C)N1,0.0506%
15,COc1ccc(CN2CCN(C3CCC3)CC2CCO)c(C)c1C (stereo not shown),0.432%
16,COc1cccc(/C(C)=N/N=C(\C)c2cccc(OC)c2)c1,16.7%
17,COc1cccc(CC(=O)OCC(=O)N2CCN(c3ccc(F)cc3)CC2)c1,-60.6%
18,O=C(O)CC1c2ccccc2C=Cc2ccccc21,10.9%
19,CCC(=O)c1ccc(OCC(=O)OCC(=O)N(C)CC(=O)Nc2ccc(F)cc2)cc1,-18.4%
20,CC(C)(C)S(=O)(=O)c1cnc(-c2ccccn2)nc1N,5.52%
21,N#C[C@]1(S(=O)(=O)c2ccccc2)C[C@@H]2ON=C(c3cccc(Br)c3)[C@@H]2C1,1.79%
22,COc1cc(NS(=O)(=O)c2ccc(Br)cc2)c(OC)cc1NC(=O)c1ccco1,-24.4%

row,Structure (SMILES),"hERG current change (%, negative = inhibition) at 10uM"
1,CC(=O)OCC1OC(Sc2cccc3cccnc23)C(OC(C)=O)C(OC(C)=O)C1OC(C)=O (stereo not shown),-13.6%
2,O=[N+]([O-])c1ccc(N2CCNCC2)cc1N1CCCCC1,-0.95%
3,COC(=O)c1cccc(NC(=O)c2cccc([N+](=O)[O-])c2)c1,-10.4%
4,CCN(C(=O)CSc1nnc(-c2ccco2)n1CC)c1c(N)n(Cc2ccccc2)c(=O)[nH]c1=O,-0.0315%
5,Cn1c(C(=O)N2CCC(C(N)=O)CC2)cc2cc(Cl)ccc21,-7.5%
6,Cc1nc(-c2c(C(F)(F)F)noc2-c2ccc(O)cc2O)cs1,1.55%
7,O=C(Cc1ccccc1)Nc1ccc(NC(=O)c2ccco2)cc1Cl,-4.4%
8,Clc1ccc(OCCCCN2CCCCC2)cc1.O=C(O)C(=O)O,-65.5%
9,CCn1c(CNc2ccc(F)cc2)nnc1SCC#N,7.71%
10,COc1cc(C2/C(=C(\O)c3ccc4c(c3)CC(C)O4)C(=O)C(=O)N2CCN2CCOCC2)cc(OC)c1OC (stereo not shown),-3.37%
11,COc1ccccc1OCC(O)CN1C(=O)NC(C)(C)C1=O (stereo not shown),20.7%
12,O=C1CCC(O)CCN1CCSc1ccccc1 (stereo not shown),6.72%
13,O=C(Cc1cn2ccsc2n1)Nc1ccccc1Oc1ccccc1,-27.4%
14,Cc1ccc(C(=S)NCS(=O)(=O)c2ccc(C)cc2)cc1,6.25%
15,Cn1c(CNc2ccc(Cl)cc2)nnc1SCc1ccccc1,10.2%
16,COc1ccc2nc(C)cc(Nc3ccc(C)cc3)c2c1.Cl,-52.8%
17,COc1ccc(-c2csc(NC(=O)c3ccc(S(=O)(=O)N4CCc5ccccc5C4)cc3)n2)cc1,5.11%
18,CC1CCN(c2ccc(S(=O)(=O)NC3=NCCCCC3)cc2[N+](=O)[O-])CC1,-11.2%
19,CC1(C)Cc2c(sc(NC(=O)C(=O)N3CCCC3)c2C#N)CO1,20.2%
